Source: PubChem BioAssay AID2675 (National Center for Advancing Translational Sciences (NCATS), 2010)
Hit rate of the full screen: of about 280,000 compounds, about 100 (0.036%) were called active. Inconclusive results, whose numbers are uncertain, are shown with a selection of clear calls. Calls come from the whole dose curve; as a rule, active = well fitted inhibition curve with a large enough effect in the signal ratio, with a control signal flat (not every such curve was filed as active); inconclusive = small, poorly fitted or top-dose-only effect, or effect the other way, or a change in a side signal; inactive = no such curve, though single readings can be large or run the other way; the % refers to the signal ratio. A potency beside an inconclusive call is a rough fit, not a confirmed value. “Side channel” marks fits to a control or component signal instead of the main read-out.

Each compound was assayed against Muscleblind-like protein 1 (Homo sapiens) (UniProt Q9NR56) (assay: qHTS Assay for Inhibitors of MBNL1-poly(CUG) RNA binding). Conditions: TR-FRET MBNL1-His/biotin-(CUG)12 binding, 665/545 ratio; activity change, negative = inhibition: at 57.5 µM (top of the series).
In short: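 His-tagged MBNL1 binding to biotinylated (CUG)12 RNA was measured by TR-FRET using terbium anti-His antibody (0.055 ng/ul final) and streptavidin-XL665 (5 nM final). Compounds were titrated 92 nM to 58 uM; 60 min at room temperature.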
% is set by controls: 0 for no effect and ±100 for the full control effect; potency is the fitted concentration of half-maximal effect; tags give direction and shape of the fitted curve or compound fluorescence and quenching.

Chain of UniProt Q9NR56 (Q9NR56 whole entry, looked up): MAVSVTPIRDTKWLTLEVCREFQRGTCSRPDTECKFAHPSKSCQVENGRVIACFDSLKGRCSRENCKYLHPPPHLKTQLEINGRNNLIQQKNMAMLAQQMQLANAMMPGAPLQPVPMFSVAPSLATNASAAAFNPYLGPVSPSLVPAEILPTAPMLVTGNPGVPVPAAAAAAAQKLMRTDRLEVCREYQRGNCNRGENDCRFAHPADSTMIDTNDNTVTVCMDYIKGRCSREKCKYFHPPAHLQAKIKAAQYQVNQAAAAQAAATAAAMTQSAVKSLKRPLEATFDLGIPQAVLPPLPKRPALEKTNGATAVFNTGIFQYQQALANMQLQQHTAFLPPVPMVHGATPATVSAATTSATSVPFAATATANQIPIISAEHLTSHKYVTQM

Structure (SMILES)	Potency	activity change, negative = inhibition
Cc1oc(C(=O)O)cc1COc1ccc2c(C)cc(=O)oc2c1	inconclusive: 7.08 µM [quencher, side channel, single point]	
COc1ccc(/C=N/NC(=O)CCC(=O)Nc2ccccc2)cc1OC		inactive: 15.1%
N#Cc1cnc(SCC(=O)Nc2ccccc2C(F)(F)F)nc1N	inconclusive: 39.8 µM [quencher, side channel, single point]	
CCc1nn2c(=O)cc(N3CCN(c4cc(C)nc5ccccc45)CC3)nc2s1	inconclusive: 3.98 µM [quencher, side channel, partial curve]	
O=C(N/N=C/c1ccc2c(c1)OCO2)c1ccc(Br)o1	inconclusive: 15.8 µM [quencher, side channel, partial curve]	
N#Cc1ccc(/C=C2\CCn3c2nc2cc(C(=O)O)ccc2c3=O)cc1	inconclusive: 2.24 µM [quencher, side channel, full curve, poor fit]	
Cc1ccc(S(=O)(=O)C2(C(=O)Nc3cccc(F)c3)CC2)cc1	inconclusive: 0.708 µM [fluorescent, side channel, single point]	
O=C(NCc1ccco1)C(c1cccs1)N(C(=O)C1COc2ccccc2O1)c1cccc(O)c1 (centres undefined)	inconclusive: 39.8 µM [fluorescent, single point]	
COc1ccc(/C=N/Nc2ncnc3sc4c(c23)CCCC4)cc1O	inconclusive: 28.2 µM [quencher, side channel, single point]	
O=C(CCC(=O)N/N=C/c1cc(Cl)cc(Cl)c1O)NCc1ccccc1		inactive: 13%
Cc1cc(C)nc(SCc2nnc(SCc3ccc([N+](=O)[O-])cc3)n2Cc2ccco2)n1	inconclusive: 31.6 µM [activator, single point]	
COc1ccc2c(c1OC)C(=O)N(c1ccccc1)C2=O	inconclusive: 28.2 µM [quencher, side channel, single point]	
CCOc1ccc(C(=O)NC(=S)Nc2ccc(NC(=O)c3ccco3)cc2)cc1[N+](=O)[O-]	inconclusive: 0.1 µM [fluorescent, side channel, full curve, poor fit]	
N#Cc1ccc(N2C(=O)[C@@H]3C(C(=O)c4ccc5ccccc5n4)=NN[C@@H]3C2=O)cc1		inactive: 31.8%
Cc1c(C(=O)O)cnc2cc(-c3ccc(Cl)cc3)nn12	inconclusive: 39.8 µM [quencher, side channel, single point]	
N#C/C(C(=O)NCc1ccccc1)=C1/N=C(NC(=O)c2cccs2)c2ccccc21	inconclusive: 5.62 µM [quencher, side channel, full curve, poor fit]	
N#CCCN1CCN(C(=S)c2ccc(-c3cccc(Cl)c3)o2)CC1	inconclusive: 14.1 µM [quencher, side channel, partial curve]	
N#Cc1cccc(C#N)c1Oc1ccc(S(=O)(=O)Nc2ccc(Cl)cc2)cc1		inactive: -9.05%
N#C/C(=C\c1ccc(O)cc1)c1nc2ccccc2o1	inconclusive: 15.8 µM [quencher, side channel, partial curve]	
CN(CC1CCCO1)S(=O)(=O)c1ccc(C(=O)Nc2nc(-c3ccccn3)cs2)cc1 (centres undefined)		inactive: 5.95%

Structure (SMILES)	Potency	activity change, negative = inhibition
CC(OC(=O)C1CC1)C(=O)Nc1ccc([N+](=O)[O-])cc1Cl (centres undefined)	inconclusive: 14.1 µM [quencher, side channel, partial curve]	
Cc1sc(NC(=O)/C=C/c2ccc3c(c2)OCO3)nc1-c1ccccc1	inconclusive: 0.1 µM [fluorescent, side channel, full curve, poor fit]	
O=C(CO)N/N=C/c1c2ccccc2cc2ccccc12	inconclusive: 15.8 µM [quencher, partial curve]	
CN=c1scc(-c2ccco2)n1/N=C/c1ccc(O)c(O)c1	inconclusive: 28.2 µM [quencher, side channel, partial curve]	
COc1ccc(C)cc1Nc1ccc(C(=O)O)cc1[N+](=O)[O-]	inconclusive: 28.2 µM [quencher, side channel, partial curve]	
CC1(C)Cc2c(sc3c2c2ncnn2c2nnc(SCC(=O)NCc4ccco4)n32)CO1		inactive: -10.1%
C/C(N)=C(/C#N)C(=O)CSc1nc2ccccc2c(=O)n1-c1ccc(C)c(Cl)c1	inconclusive: 15.8 µM [fluorescent, side channel, partial curve]	
Cc1ccc(-c2nc3ccc(C(=O)O)cc3nc2-c2ccc(C)cc2)cc1		inactive: -2.6%
C/C(O)=C/c1nc2ccccc2[nH]c1=O	inconclusive: 39.8 µM [quencher, side channel, single point]	
Cc1ccc(/C=N/NC(=O)CNC(=O)c2ccc(C)c([N+](=O)[O-])c2)o1	inconclusive: 15.8 µM [quencher, side channel, partial curve]	
CCCOc1ccc2cc(C(=O)NCc3ccccc3)c(=O)oc2c1		inactive: 35.1%
COc1cccc(CN=c2c([N+](=O)[O-])nn(-c3ccccc3C)n2O)c1	inconclusive: 25.1 µM [quencher, side channel, partial curve]	
CC(C)N1C/C(=C/c2cccnc2)C(=O)/C(=C/c2cccnc2)C1	inconclusive: 1.41 µM [fluorescent, side channel, full curve, poor fit]	
COc1ccc(-c2nc3cnccn3c2Nc2ccc(C)cc2)cc1	inconclusive: 39.8 µM [quencher, side channel, partial curve, poor fit]	
COc1ccc(CCNC2CCC(c3ccccc3)CC2)cc1 (centres undefined)		inactive: -4.41%
Cc1c(OCc2nn[nH]n2)ccc2c(-c3ccccc3)cc(=O)oc12	inconclusive: 35.5 µM [quencher, side channel, single point]	
O=C(Nc1cc([N+](=O)[O-])ccc1N1CCCC1)c1cccs1	inconclusive: 28.2 µM [quencher, side channel, partial curve]	
Cc1ccccc1NC(=O)c1cc([N+](=O)[O-])ccc1NCCN1C(=O)CCC1=O	inconclusive: 8.91 µM [quencher, side channel, partial curve]	
Oc1cccc(/C=N/N=C/c2cccc(O)c2O)c1O	inconclusive: 31.6 µM [quencher, side channel, single point]	
NC(=O)CC[C@@H]1NC(=O)[C@@H]2CCCN2C(=O)c2cc([N+](=O)[O-])cc(I)c2NCCCC[C@@H](C(=O)NC(CC(=O)O)C(N)=O)NC1=O (some centres undefined)	inconclusive: 14.1 µM [quencher, partial curve]	

Structure (SMILES)	Potency	activity change, negative = inhibition
CCc1cc(C(=O)c2ccc(Br)cc2)c(NC(=O)CN(CC)CC)s1		inactive: -0.282%
O=C(CNC(=O)c1ccccc1Br)N/N=C/c1cc(Br)ccc1O		inactive: 24.2%
O=C(NCCN1C(=O)S/C(=C\c2ccccc2F)C1=O)C1CCCN1C(=O)c1cccs1 (centres undefined)	inconclusive: 7.08 µM [quencher, side channel, partial curve]	
CC(=O)c1sc(Nc2cccc(C)c2)nc1C	inconclusive: 25.1 µM [quencher, single point]	
COc1ccc2ccccc2c1/C=N/Nc1cccc(C(=O)O)c1	inconclusive: 28.2 µM [quencher, side channel, partial curve]	
CC(C)(CO)NCc1cccs1	inconclusive: 7.94 µM [inhibitor, single point]	
O=C(CC1SC(=NCC2CCCO2)NC1=O)Nc1cc([N+](=O)[O-])ccc1Cl (centres undefined)	inconclusive: 17.8 µM [quencher, side channel, partial curve]	
CCn1cc(C(=O)NC(=S)Nc2ccccc2[N+](=O)[O-])cn1	inconclusive: 11.2 µM [quencher, side channel, partial curve]	
COc1ccc2c(c1OC)C(=O)N1N=C(c3ccc(O)cc3)CC21 (centres undefined)	inconclusive: 3.16 µM [quencher, side channel, full curve]	
O=C1CCCN1CCCN=c1c([N+](=O)[O-])nn(-c2ccc(Cl)cc2)n1O	inconclusive: 14.1 µM [quencher, side channel, partial curve]	
Cc1ccc(S(=O)(=O)Nc2ccc(O)c3ccccc23)c(C)c1	inconclusive: 22.4 µM [quencher, side channel, partial curve, poor fit]	
COc1ccc2c(CC(=O)NCc3ccc4c(c3)OCO4)coc2c1		inactive: -0.901%
Cc1ccc(C(=O)NCCN2C3=NC[C@@H](Cc4ccccc4)N3C[C@H]2Cc2ccc(O)cc2)cc1Br		inactive: -14.6%
Cc1ccc(NC(=O)c2ccc(NCCCN3CCC(C)CC3)c([N+](=O)[O-])c2)cc1F	inconclusive: 2.82 µM [quencher, side channel, full curve]	
O=[N+]([O-])c1ccccc1/C=C/C=N/N1CCCCC1	inconclusive: 25.1 µM [quencher, side channel, partial curve]	
N=C1/C(=C\c2ccc(SCc3ccco3)o2)C(=O)N=C2SC=NN12	inconclusive: 14.1 µM [quencher, side channel, partial curve]	
NC(=O)CC(NC(=O)Cc1cccc2ccccc12)c1ccc(NCCCN2CCCC2=O)c([N+](=O)[O-])c1 (centres undefined)	inconclusive: 12.6 µM [quencher, side channel, partial curve]	
CCOc1ccc(-c2cc(C(=O)NCCCN3CCCC3)c3ccccc3n2)cc1	inconclusive: 31.6 µM [quencher, single point]	
COC(=O)c1cccc(NC(=O)c2ccc3c(c2)C(=O)N(CC2CCCO2)C3=O)c1 (centres undefined)	inconclusive: 8.91 µM [quencher, side channel, partial curve]	
